From the supplement of paper PMC12217912
Some of the results follow. The full chains were built here from the parent and the listed change. Inactive controls read about 0.05.

B1: TEV protease; numbered along this chain (parent)
chain: MGESLFKGPRDYNPISSSICHLTNESDGHTTSLYGIGFGPFIITNKHLFRRNNGTLVVQSLHGVFKVKDTTTLQQHLVDGRDMIIIRMPKDFPPFPQKLKFREPQREERICLVTTNFQTKSMSSMVSDTSCTFPSGDGIFWKHWIQTKDGQCGSPLVSTRDGFIVGIHSASNFTNTNNYFTSVPKNFMELLTNQEAQQWVSGWRLNADSVLWGGHKVFMVKPEEPFQPVKEATQL

Variants of: B1
Experiment: raw area under fraction-flipped curve 0-4 h after induction (AUC4h, not background-subtracted), DNA-recorder readout of cleavage of the substrate (dimensionless); higher = more cleavage of the substrate by the protease variant
Details: temperature: 34 °C; time window: 0-4 h after rhamnose induction
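Note: Bxb1 expression induced with 0.2% (w/v) L-rhamnose at OD600 near 0.5, cultures sampled hourly, flipped fraction per protease–substrate barcode pair counted by paired-end Illumina sequencing.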

| Variant | area with substrate ENLYFQC | area with substrate ENLYFQD | area with substrate ENLYFQG | area with substrate ENLYFQH | area with substrate ENLYFQI | area with substrate ENLYFQN | area with substrate ENLYFQQ | area with substrate ENLYFQR | area with substrate ENLYFQS | area with substrate ENLYFQL | area with substrate ENLYFQM | area with substrate ENLYFQT | area with substrate ENLYFQV | area with substrate ENLYFQW | area with substrate ENLYFQF | area with substrate ENLYFQK | area with substrate ENLYFQY | area with substrate ENLYFQP |
| --- | --- | --- | --- | --- | --- | --- | --- | --- | --- | --- | --- | --- | --- | --- | --- | --- | --- | --- |
| MGESLFKGPRDYNPISSSICHLTNESDGHTTSLYGIGFGPFIITNKHLFRRNNGTLVVQSLHGVFNVKDTTTLQQHLVDGRDMIIIRMPKDFPPFPQKLKFREPQREERICLVTTNFQTKSMSSMVSDTSCTFPSGDGIFWKHWIQTKDGQCGSPLVSTRDGFIVGIHSASNFTNTNNYFTSVPKNFMELLTNQEAQQWVSGWRLNADSVLWGGHKVFMVKPEEPFQPVKEATQL [K66N] | 0.0907 | 0.0693 | 0.09 | 0.0776 | 0.0627 | 0.0935 | 0.09 | 0.0683 | 0.0973 |  |  |  |  |  |  |  |  |  |
| MGESLFKGPRDYNPISSSICHLTNESDGHTTSLYGIGFGPFIITNKHLFRRNNGDLVVQSLHGVFKVKDTTTLQQHLVDGRDMIIIRMPKDFPPFPQKLKFREPQREERICLVTTNFQTKSMSSMVSDTSCTFPSGDGIFWKHWIQTKDGQCGSPLVSTRDGFIVGIHSASNFTNTNNYFTSVPKNFMELLTNQEAQQWVSGWRLNADSVLWGGHKVFMVKPEEPFQPVKEATQL [T55D] | 0.129 | 0.0565 | 0.085 |  | 0.0521 | 0.0786 |  | 0.0542 | 0.088 | 0.0628 | 0.0928 | 0.0549 | 0.0331 | 0.0528 |  |  |  |  |
| MGESLFKGPRDYNPISSSICHLTNESDGHTTSLYGIGFGPFIITNKHLFRRENGTLVVQSLHGVFKVKDTTTLQQHLVDGRDMIIIRMPKDFPPFPQKLKFREPQREERICLVTTNFQTKSMSSMVSDTSCTFPSGDGIFWKHWIQTKDGQCGSPLVSTRDGFIVGIHSASNFTNTNNYFTSVPKNFMELLTNQEAQQWVSGWRLNADSVLWGGHKVFMVKPEEPFQPVKEATQL [N52E] | 0.0824 |  |  |  |  | 0.0431 |  | 0.0565 | 0.0794 | 0.0693 | 0.0628 |  | 0.0641 |  | 0.061 | 0.06 | 0.0624 |  |
| MGESLFKGPRDYNPISSSICHLTNESDGHTTSLYGIGFGPFIITNKHLFRRNNGTLVVQSLHGVFKVKDTTTLQQHLVDGRDMIIIRMPKDFPPKPQKLKFREPQREERICLVTTNFQTKSMSSMVSDTSCTFPSGDGIFWKHWIQTKDGQCGSPLVSTRDGFIVGIHSASNFTNTNNYFTSVPKNFMELLTNQEAQQWVSGWRLNADSVLWGGHKVFMVKPEEPFQPVKEATQL [F95K] | 0.0613 | 0.062 | 0.0663 |  | 0.0468 |  |  |  | 0.0655 |  |  | 0.0512 |  | 0.0527 |  | 0.053 |  | 0.0477 |
| MGESLFKGPRDYNPISSSICHLTNESDGHTTSLYGIGFGPFIITNKHLFRRNNGTLVVQSLHGVFKVKDTTTLQQHLVDGRDMIIIRMPKDFPPFPQKLKFREPQREERICLVTTNFQTKSMSSMVSDTSCTFPSGDGIFWKHWIQTKDGQCGSPLVSTRDGFIVGIHSASNFTNTNNYFTSVPKNFMELLTNQEAQQWVSGWRLNADSVLWGGHKKFMVKPEEPFQPVKEATQL [V217K] | 0.0483 |  |  |  |  |  |  | 0.0577 | 0.061 |  | 0.06 | 0.0705 |  | 0.0397 |  | 0.0792 | 0.0666 |  |
| MGESLFKGPRDYNPISSSICHLTNESDGHTTSLYGIGFGPFIITNKHLFRRNNGTLVVQSLHGVFKVKDTTTLQQHLVDGRDMIIIRMPKDFPPFPQKLKFREPQREERICLVTTNFQTKSMSSMVSDTSCTFPSGDGIFWKHWIQTKDGQCGSPLVSTRDGFIVGIHSASNYTNTNNYFTSVPKNFMELLTNQEAQQWVSGWRLNADSVLWGGHKVFMVKPEEPFQPVKEATQL [F173Y] | 0.131 |  |  | 0.0951 | 0.0616 | 0.0724 | 0.0647 | 0.0548 | 0.102 | 0.0614 |  | 0.0637 | 0.0378 | 0.0645 |  |  |  | 0.0668 |
| MGESLFKGPRDYNPISSSICHLTNESDGHTTSLYGIGFGPFIITNKHLFRRNNGTLVVQSLHGVFKVKDTTTLQQHLVDGRDMIIIRMPKDFPPFPQKLKFREPQREERICLVTTNFQTKSMSSMVSDTSCTFPSGDGIFWKHWIQTKDGQCGSPLVSTRDGFIVGIHSASNFTITNNYFTSVPKNFMELLTNQEAQQWVSGWRLNADSVLWGGHKVFMVKPEEPFQPVKEATQL [N175I] | 0.0508 |  |  |  |  | 0.0604 |  | 0.0636 | 0.0646 |  |  |  | 0.0572 | 0.0541 | 0.0719 |  |  |  |
| MGESLFKGPRDYNPISSSICHLTNESDGHTTSLYGIGFGPFIITNKHLFRRNNGTLVVQSLHGVFKVKDTTTLQQHLVDGRDMIIIRMPKDFPPFPQKLKFREPQREERICLVTTNFQTKSMSSMVSDTSCTFNSGDGIFWKHWIQTKDGQCGSPLVSTRDGFIVGIHSASNFTNTNNYFTSVPKNFMELLTNQEAQQWVSGWRLNADSVLWGGHKVFMVKPEEPFQPVKEATQL [P134N] | 0.0982 | 0.0595 | 0.081 | 0.0758 | 0.0428 | 0.0583 |  | 0.0541 | 0.0914 | 0.0489 | 0.0747 | 0.0421 | 0.0592 | 0.0507 |  |  | 0.0915 | 0.0656 |
| MGESLFKGPRDYNPISSSICHLTNESDGHTTSLYGIGFGPFIITNKHLFRRNNGTLVVQSLHGVFKVKDTTTLQQHLVDGRDMIIIRMPKDFPPFPQKLKFREPQREERICLVTTNFQTKSMSSMVSDTSCTFPSGDGIFWKHWIQTKDGQCGSPLVSTRDGFIVGIHSASNFTNTNNYFTSVPKNFMELLTNQEAQQWVSGWRLNADSVLWGGHKVFMVKPSEPFQPVKEATQL [E223S] | 0.112 |  | 0.077 | 0.0891 | 0.0649 | 0.0832 |  | 0.0714 | 0.0961 | 0.0606 | 0.0931 | 0.063 | 0.0618 | 0.0615 | 0.0465 | 0.0556 | 0.0582 | 0.0911 |
| MGESLFKGPRDYNPISSSICHLTNESDGHTTSLYGIGFGPFIITNKHLFRRNNGTLVVQSLHGVFKVKDTTTLQQHLVDGRDMIIIRMPKDFPPFPQKLKFREPQREERICLVTTNFQTKSMSSMVSDTSCTFPSGDGIFWKHWIQTKDGQCGSPLVSTRDKFIVGIHSASNFTNTNNYFTSVPKNFMELLTNQEAQQWVSGWRLNADSVLWGGHKVFMVKPEEPFQPVKEATQL [G162K] | 0.0863 |  | 0.0516 |  |  | 0.0648 | 0.0878 | 0.0616 | 0.0954 | 0.0539 | 0.094 | 0.0638 |  |  |  | 0.0574 |  |  |
